# The campaign covered roughly 310,000 compounds. About 2,200 (0.71%) showed an effect of 50% or more. Effects have a minus sign here. This is one part of the list.
# Target: human ether-à-go-go-related gene (hERG) potassium channel (human, UniProt Q12809)
# Assay: primary screen, population patch clamp on CHO cells stably expressing hERG
# human ether-à-go-go-related gene (hERG) potassium channel, sequence (Q12809 whole entry, looked up): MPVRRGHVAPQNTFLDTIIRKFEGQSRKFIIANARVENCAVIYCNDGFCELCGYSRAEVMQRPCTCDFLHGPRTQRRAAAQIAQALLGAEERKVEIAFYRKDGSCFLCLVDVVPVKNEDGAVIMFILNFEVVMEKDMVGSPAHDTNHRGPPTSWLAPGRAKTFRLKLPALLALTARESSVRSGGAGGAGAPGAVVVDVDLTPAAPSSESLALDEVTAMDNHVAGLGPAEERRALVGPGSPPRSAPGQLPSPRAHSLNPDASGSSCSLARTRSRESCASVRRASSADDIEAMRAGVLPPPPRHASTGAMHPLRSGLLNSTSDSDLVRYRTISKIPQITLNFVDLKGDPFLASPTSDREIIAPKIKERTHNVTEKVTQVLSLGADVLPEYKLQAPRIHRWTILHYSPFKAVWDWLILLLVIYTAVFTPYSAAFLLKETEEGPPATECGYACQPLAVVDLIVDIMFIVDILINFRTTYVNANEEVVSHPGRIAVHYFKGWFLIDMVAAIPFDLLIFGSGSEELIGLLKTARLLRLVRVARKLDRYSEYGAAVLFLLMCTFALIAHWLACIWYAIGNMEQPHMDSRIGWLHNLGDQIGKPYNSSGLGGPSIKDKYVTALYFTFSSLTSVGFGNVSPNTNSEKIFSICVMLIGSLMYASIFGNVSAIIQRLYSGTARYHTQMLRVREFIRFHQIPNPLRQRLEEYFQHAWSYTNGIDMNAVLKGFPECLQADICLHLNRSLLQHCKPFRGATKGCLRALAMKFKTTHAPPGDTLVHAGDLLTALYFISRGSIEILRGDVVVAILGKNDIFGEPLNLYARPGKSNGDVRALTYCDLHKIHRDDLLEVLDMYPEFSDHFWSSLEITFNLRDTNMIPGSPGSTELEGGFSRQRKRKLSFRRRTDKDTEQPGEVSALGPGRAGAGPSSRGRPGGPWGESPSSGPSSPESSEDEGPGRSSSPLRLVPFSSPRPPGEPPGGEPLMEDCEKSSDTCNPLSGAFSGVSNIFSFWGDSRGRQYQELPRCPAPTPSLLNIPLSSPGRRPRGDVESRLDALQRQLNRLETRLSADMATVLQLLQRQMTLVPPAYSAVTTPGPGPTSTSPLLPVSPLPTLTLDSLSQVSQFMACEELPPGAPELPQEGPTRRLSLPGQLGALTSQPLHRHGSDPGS
row,SMILES,"hERG current change (%, negative = inhibition) at 1uM [%]"
1,NC(=O)Nc1ccc(C(=O)OCC(=O)NC2CCCCC2)cc1,16.5
2,O=C(CNS(=O)(=O)c1ccc(Cl)cc1)OCC(=O)N1CCCc2ccccc21,6.61
3,CS(=O)(=O)N1CCN(c2ccc(NC(=O)c3ccc(Br)o3)cc2)CC1,5.8
4,CCOC(=O)c1ccc(NC(=O)N2CC(C)OC(C)C2)cc1 (stereo not drawn),1.75
5,COc1ccc(C(=O)Nc2ccccc2-c2ccccc2)cc1Cl,13.1
6,COCCNC(=O)c1onc(CSc2ccccc2F)c1C(=O)O,8.6
7,Cc1oc2ccc(OS(C)(=O)=O)cc2c1C(=O)OC(C)C,9.1
8,CCOC(=O)c1oc2ccccc2c1CSc1nnnn1-c1ccc(C)cc1,5.36
9,CCCC(=O)Nc1cccc(C(=O)Nc2ccccc2OCC)c1,5.99
10,CC(/C=C/c1ccc2c(c1)OCO2)=N/NC(=O)C1COc2ccccc2O1 (stereo not drawn),-0.811
11,Fc1ccc(C2=NOC(c3nnc(-c4ccccc4)o3)C2)cc1 (stereo not drawn),5.5
12,Nc1ncnc(Nc2ccccc2Cl)n1,8.95
13,CCOC(=O)N1CCC(NC(=O)CN2C(=O)CSc3ncccc32)CC1,3.82
14,CC(C)=CCc1c(O)cc(O)c2c(=O)c(O[C@@H]3O[C@@H](C)[C@H](O)[C@@H](O)[C@H]3O)c(-c3ccc(O)cc3)oc12,12.5
15,O=C(COc1ccccc1O)NCCN1CCOCC1,17.7
16,Cc1c(C#N)c(O)n(CCO)c(=O)c1N=Nc1ccc2c(c1)COC2=O,10.4
17,COc1ccc(OCCC(=O)OCC(=O)Nc2ccc(S(=O)(=O)N3CCOCC3)cc2)cc1,74.8
18,CCCn1c(N)c(Sc2ccccc2)c(=O)n(CCC)c1=O,2.48
19,CC(C)Nc1nnc(SCc2cc(=O)n3ccsc3n2)s1,13.6
20,COC(=O)CCC(=O)N1CCCC(CO)(Cc2ccccc2C)C1 (stereo not drawn),6.02
21,Cc1cs/c(=N\N=C2CCCCC2)n1Cc1ccco1,18.2
22,Cc1nc2c(C(=O)NCc3ccco3)cnn2c(C)c1Cc1ccc(F)cc1Cl,1.91
23,CCOC(=O)C(C)NC(=O)CCc1nnc2ccc(N3CCC(C)CC3)nn12 (stereo not drawn),14.5
24,Cc1ccc(-n2c(O)c(/C=N/Nc3ccc(S(=O)(=O)N4CCOCC4)cc3[N+](=O)[O-])c3ccccc3c2=O)c(C)c1,8.62
